Data from PubChem BioAssay AID485313 (National Center for Advancing Translational Sciences (NCATS), 2010).
The whole screen tested about 320,000 compounds, of which about 7,600 (2.4%) were called active. Inconclusive results, whose numbers are uncertain, are shown with a selection of clear calls. The call rests on the fitted dose curve; in most records, active means well fitted activation curve with a large enough effect; inconclusive means small, poorly fitted or top-dose-only effect; inactive means no such curve, though single readings can be large or run the other way. Potencies of inconclusive entries are left out as doubtful fits.

Assay: qHTS Assay for NPC1 Promoter Activators; further: nearly all actives have a fitted effect of over 60% in size;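 on activation: reporter is driven by a mutant NPC1 promoter; % of control where 0% means no effect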
Conditions: Huh7 NPC1 promoter luciferase reporter, 24 h; series mostly up to 9.22 µM; activation: at the top concentration
Procedure, shortened: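 Stable NPC1-promoter luciferase Huh7 line; cpd (DMSO) 24 h, 37 °C, 5% CO2; Amplite luciferase reagent 10 min RT; luminescence readout. qHTS format.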
Potency means the concentration at half of the fitted maximal effect; tags describe the fitted curve by direction and shape.

Row | SMILES | activation | Potency
1 | Cc1ccc(C2C=NN(c3ccccc3)C2=O)cc1 (stereo not drawn) | inactive: 15.7% | –
2 | Cc1cccc(OCCn2c(=O)sc3ccccc32)c1 | – | inconclusive [activator, partial curve]
3 | O=C(NCCc1ccccc1)c1cccc(Br)c1 | – | active: 3.55 µM
4 | CCCc1cc(C(=O)Nc2cccc([N+](=O)[O-])c2)cs1 | – | inconclusive [activator, single point]
5 | Cc1cccc(-c2ocnc2C(=O)Nc2ccccc2NC(=O)c2ccccn2)c1 | inactive: -0.631% | –
6 | O=C(COC(=O)c1ccccn1)c1cccc(Br)c1 | – | inconclusive [activator, single point]
7 | O=C(NCc1csc(-c2cccs2)n1)C1CCC1 | – | inconclusive [activator, partial curve]
8 | CCOc1ccc(NC(=O)c2nccnc2CO)cc1 | – | active: 1.41 µM
9 | CCCn1c(SCC(=O)c2cc(C)n(-c3cc(C)on3)c2C)n[nH]c1=O | inactive: -1.15% | –
10 | Nc1c(-c2ccc(Cl)cc2)cnn1-c1ccccc1 | – | active: 2.24 µM
11 | Cc1cccc(-n2nnnc2SCC(=O)Nc2cccc(S(N)(=O)=O)c2)c1 | inactive: 1.79% | –
12 | CCOc1ccc(/C=C(\C#N)C(=O)Nc2cccnc2)cc1 | inactive: -0.142% | –
13 | Cc1ccc(SCC(=O)Nc2ccc(-c3nc4ccccc4[nH]3)cc2)cc1 | – | inconclusive [activator, partial curve]
14 | O=C(Nc1ccc([N+](=O)[O-])cc1)c1cc2ccccc2nc1Cl | inactive: 6.63% | –
15 | CC(C)CC(=O)Nc1cc2nn(-c3ccccc3)nc2cc1Cl | – | active: 1.78 µM
16 | O=C(Nc1nnc(CCc2ccccc2)s1)c1cccc(F)c1 | – | inconclusive [activator, partial curve]
17 | CS(=O)(=O)N1CCc2cc(C(=O)Nc3ccccc3Cl)ccc21 | – | inconclusive [activator, partial curve]
18 | Cc1c(C(=O)Nc2ccc3c(c2)CCC3)cccc1[N+](=O)[O-] | – | inconclusive [activator, single point]
19 | CC(C)(C)c1ccc(/C=C/C(=O)N2CCCCC2)cc1 | – | active: 3.98 µM
20 | COC(=O)CSc1nc(-c2cccs2)ccc1C#N | – | active: 1.78 µM
21 | COc1ccc(N=CC2=C(O)c3ccccc3C2=O)cc1 | – | active: 0.708 µM
22 | CCCN(CC(=O)Nc1ccccc1C)C(=O)CCCOc1ccc(Br)cc1 | – | inconclusive [activator, single point]
23 | O=C(CNc1ccccc1)Nc1ccc(F)cc1 | – | inconclusive [activator, partial curve]
24 | Cc1ccc(-c2c(C(=O)N/N=C/c3c[nH]c4ccccc34)nnn2-c2nonc2N)cc1 | inactive: -3.15% | –
25 | O=C(NC1CCN(Cc2ccccc2)CC1)c1cn(-c2ccccc2)nc1-c1cccnc1 | inactive: 0.109% | –
26 | O=C(/C=C/c1ccco1)Nc1cccc(-c2nc3ccccc3[nH]2)c1 | – | inconclusive [activator, single point]

Row | SMILES | activation | Potency
27 | CC(=O)OCCCN1c2ccccc2Nc2nnc(-c3ccccc3)cc21 | – | active: 1.78 µM
28 | O=C(Nc1ccccn1)Nc1ccccc1[N+](=O)[O-] | – | inconclusive [activator, single point]
29 | Cc1cccc(NS(=O)(=O)c2ccc(NC(=O)CN(c3cc([N+](=O)[O-])ccc3C)S(C)(=O)=O)cc2)c1 | inactive: -3.89% | –
30 | CN1CCN(c2ccc(-c3cccc(NC(=O)COc4ccc(Cl)cc4)c3)nn2)CC1 | – | active: 2.82 µM
31 | Cc1cccc(/C=C(\C#N)C(=O)Nc2ccccn2)c1 | inactive: -1.03% | –
32 | c1ccc(N2CCN(c3cnc4ccccc4n3)CC2)cc1 | – | active: 1.58 µM
33 | Cc1ccc(-c2nnc(SCC(C)C)n2C)cc1 | – | inconclusive [activator, single point]
34 | c1ccc2cc(Sc3ncnc4c3oc3ccccc34)ccc2c1 | – | inconclusive [activator, single point]
35 | O=C(CCc1c[nH]c2ccccc12)OCc1ccc(Br)cc1 | inactive: -2.32% | –
36 | CC(C)(C)C1CCC(OC(=O)c2cncc(Br)c2)CC1 (stereo not drawn) | – | inconclusive [activator, partial curve]
37 | Cc1cccn2c(=O)c(C=O)c(Nc3ccccc3)nc12 | – | inconclusive [activator, single point]
38 | Cc1cc(=O)oc2cc(NC(=O)c3cccc(F)c3)ccc12 | – | inconclusive [activator, partial curve]
39 | CC(C)c1ccc(CNC(=O)C2CCCN2S(=O)(=O)c2ccccc2)cc1 (stereo not drawn) | inactive: -6.01% | –
40 | CC(C)c1ccc(-c2cc(C(=O)N3N=C(C(F)F)CC3(O)C(F)F)c3ccccc3n2)cc1 (stereo not drawn) | – | inconclusive [activator, partial curve]
41 | Cc1ccc(S(=O)(=O)NCCC(=O)NC(C)CCc2ccccc2)cc1 (stereo not drawn) | inactive: -1.15% | –
42 | COc1ccc(OC(=O)c2cnn(-c3ccccc3)c2C)cc1 | – | active: 3.16 µM
43 | CNC(=S)/N=C/NOCc1ccc(Cl)cc1Cl | inactive: -14.8% | –
44 | O=C(NCCNc1ccccc1[N+](=O)[O-])c1ccccc1F | – | inconclusive [activator, partial curve]
45 | O=C(C[n+]1cn(C(F)F)c2ccccc21)c1ccc(OC(F)F)cc1 | – | inconclusive [activator, single point]
46 | O=C(Nc1ccccc1)c1ccc(NCC2CCCO2)c([N+](=O)[O-])c1 (stereo not drawn) | – | inconclusive [activator, partial curve]
47 | Nc1c(-c2ccccc2)cnn1-c1cccc(C(F)(F)F)c1 | – | inconclusive [activator, partial curve]
48 | N#CCOc1ccccc1/C=C/c1nc2ccccc2c(=O)[nH]1 | – | inconclusive [activator, full curve]
49 | CCCc1ccc(C(=O)NNc2ccccc2F)cc1 | – | inconclusive [activator, partial curve]
50 | Cc1cc(OCC(=O)N(C)Cc2ccccc2)ccc1Cl | – | inconclusive [activator, single point]
51 | CCCC(C)C(=O)Nc1ccc(C(N)=O)cc1 (stereo not drawn) | inactive: -2.83% | –
52 | COc1ccc2nc(NC(=O)Nc3ccccc3OC)sc2c1 | – | inconclusive [activator, single point]

Row | SMILES | activation | Potency
53 | CCC(C)OC(=O)c1[nH]c2c(c1C)C(=O)CC(c1ccc(N(C)C)cc1)C2 (stereo not drawn) | – | inconclusive [activator, partial curve]
54 | COc1ccc(C(=O)NCCSc2ccccc2)cc1OC | – | inconclusive [activator, single point]
55 | COc1ccc(/C(N)=N/OC(=O)c2ccco2)cc1OC | – | inconclusive [activator, single point]
56 | Cc1ccc(-n2nc3ccc(N)cc3n2)cc1C | – | active: 1.58 µM
57 | CC(=O)NC(=S)Nc1ccc2oc(-c3cc(F)c(F)cc3Cl)nc2c1 | – | inconclusive [activator, full curve]
58 | O=C(O)c1ccc(N/N=C/c2ccc(OC(=O)c3cccc(Cl)c3)cc2)cc1 | – | inconclusive [activator, full curve, poor fit]
59 | COc1cc(OC)cc(-c2nnc(SCC(=O)Nc3cccc(C(=O)O)c3)s2)c1 | inactive: 3.8% | –
60 | Cn1c(=O)c(C(=O)Nc2ccccc2S(N)(=O)=O)c(O)c2ccccc21 | – | inconclusive [activator, single point]
61 | CCCCCCCCCCS(=O)(=O)N/N=C/c1ccc([N+](=O)[O-])cc1 | inactive: 2.53% | –
62 | COc1ccc(C2C(C(C)=O)=C(O)C(=O)N2c2nccs2)c(OC)c1 (stereo not drawn) | inactive: -7.89% | –
63 | Cc1occc1C(=O)NNC(=S)Nc1ccccc1C(F)(F)F | – | inconclusive [activator, partial curve]
64 | O=C(CCc1ccc(S(=O)(=O)N2CCOCC2)cc1)OCc1nc2ccccc2s1 | inactive: -2.65% | –
65 | Cn1c(-c2cc3ccccc3oc2=O)nc2ccccc21 | – | active: 4.47 µM
66 | CCC(=O)Oc1cccc(C(=O)Nc2ccc(-c3nnc(-c4ccco4)o3)cc2)c1 | – | inconclusive [activator, single point]
67 | O=C(Nc1cccc([N+](=O)[O-])c1)Nc1ccc2c(c1)CCC2 | – | inconclusive [activator, partial curve]
68 | C=CCSC1=C(C#N)C(c2ccccc2OCC)CC(=O)N1 (stereo not drawn) | inactive: -1.12% | –
69 | CN(C(=O)c1ccco1)c1nc(-c2ccccc2)cs1 | – | active: 2.51 µM
70 | O=C(COc1ccc2cc(-c3ccccc3)c(=O)oc2c1)NCC1CCC(C(=O)O)CC1 (stereo not drawn) | inactive: -1.44% | –
71 | Cc1ccc(C(=O)Nc2ccc(C(=O)/C=C/c3cccs3)cc2)cc1 | – | inconclusive [activator, single point]
72 | C=CCn1c(SCC(N)=O)nc2scc(-c3ccc(C)o3)c2c1=O | – | inconclusive [activator, single point]
73 | C/C(=N\NC(=O)c1ccc(Cl)cc1)c1ccc2[nH]ccc2c1 | – | inconclusive [activator, single point]
74 | COC(=O)c1ccc(N=NN2CCOCC2)cc1 | – | inconclusive [activator, partial curve]
75 | O=C(NCC1CC1(Cl)Cl)Nc1ccc(Cl)c(Cl)c1 (stereo not drawn) | – | inconclusive [activator, partial curve]
76 | Cc1occc1C(=O)NNC1=CC(=O)CC(C)(C)C1 | inactive: -0.933% | –
77 | Cc1ccc(C)c(OCC(=O)Nc2cccc(C(=O)O)c2)c1C | – | inconclusive [activator, single point]
78 | O=C(NCCCN1CCN(c2ccccc2F)CC1)C1CC(=O)N(C2CCCC2)C1 (stereo not drawn) | inactive: 1.18% | –
